About 2,200 (0.71%) of roughly 310,000 compounds showed an effect of 50% or more. The effect is printed as a negative number. The list shows a part of the results.
Target: human ether-à-go-go-related gene (hERG) potassium channel (human, UniProt Q12809)
Test: primary screen, population patch clamp on CHO cells stably expressing hERG

human ether-à-go-go-related gene (hERG) potassium channel, sequence (Q12809 whole entry, looked up): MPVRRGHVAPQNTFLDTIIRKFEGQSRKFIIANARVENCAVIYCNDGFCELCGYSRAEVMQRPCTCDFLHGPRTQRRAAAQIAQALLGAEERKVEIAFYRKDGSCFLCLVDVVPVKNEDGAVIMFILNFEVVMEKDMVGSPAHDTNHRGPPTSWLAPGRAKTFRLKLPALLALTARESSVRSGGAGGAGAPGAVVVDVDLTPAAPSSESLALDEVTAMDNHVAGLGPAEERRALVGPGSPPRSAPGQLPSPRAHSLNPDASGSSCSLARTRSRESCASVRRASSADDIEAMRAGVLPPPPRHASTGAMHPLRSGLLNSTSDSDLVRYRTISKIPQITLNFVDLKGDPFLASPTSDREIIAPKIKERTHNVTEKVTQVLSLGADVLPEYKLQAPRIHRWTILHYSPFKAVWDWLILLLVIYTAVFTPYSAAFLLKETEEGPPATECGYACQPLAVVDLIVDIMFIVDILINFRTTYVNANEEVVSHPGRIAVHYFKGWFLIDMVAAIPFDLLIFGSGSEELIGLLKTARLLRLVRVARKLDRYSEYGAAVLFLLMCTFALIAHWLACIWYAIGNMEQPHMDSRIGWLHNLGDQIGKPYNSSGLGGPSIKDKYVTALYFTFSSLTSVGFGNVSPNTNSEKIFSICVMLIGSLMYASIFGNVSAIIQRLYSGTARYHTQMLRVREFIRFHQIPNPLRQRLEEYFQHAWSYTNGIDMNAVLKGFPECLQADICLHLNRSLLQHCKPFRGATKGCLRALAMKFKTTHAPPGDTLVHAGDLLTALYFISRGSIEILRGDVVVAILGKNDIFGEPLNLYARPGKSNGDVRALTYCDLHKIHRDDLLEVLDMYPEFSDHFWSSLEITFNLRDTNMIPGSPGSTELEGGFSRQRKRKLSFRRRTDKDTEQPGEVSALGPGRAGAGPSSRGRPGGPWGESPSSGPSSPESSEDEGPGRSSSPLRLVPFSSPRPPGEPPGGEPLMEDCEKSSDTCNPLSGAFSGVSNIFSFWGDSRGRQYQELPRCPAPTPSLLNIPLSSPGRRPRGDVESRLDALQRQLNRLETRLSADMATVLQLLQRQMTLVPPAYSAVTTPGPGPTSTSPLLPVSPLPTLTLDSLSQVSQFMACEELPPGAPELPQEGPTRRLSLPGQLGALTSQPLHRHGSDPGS

Going from `O=C(Cc1c(F)cccc1Cl)N1CCN(S(=O)(=O)c2cccs2)CC1` to `O=C(CN1CCN(S(=O)(=O)c2ccccc2)CC1)Nc1ccc(Cl)c([N+](=O)[O-])c1`, the “hERG current change (%, negative = inhibition) at 1uM” value falls from 11.2% to -25.2%.

Going from `CCOc1cc(C(=O)NCCN2C(=O)S/C(=C\c3cccnc3)C2=O)cc(OCC)c1OCC` to `CCOC(=O)Cc1cnc(NC(=O)Cn2nnc(-c3ccc(OCC)cc3)n2)s1`, the “hERG current change (%, negative = inhibition) at 1uM” value falls from 12.5% to 9.21%.

First: NS(=O)(=O)c1ccc(NC(=O)CCC(=O)c2ccc(Cl)s2)cc1
Second: CCCC(=O)Nc1cccc(NC(=O)c2cccc([N+](=O)[O-])c2C)c1
The “hERG current change (%, negative = inhibition) at 1uM” value of the first is higher: 14.1% for the first, 3.23% for the second.

Going from `COc1ccc(C(=O)NCC(=O)N2CCN(c3ccccc3)CC2)cc1` to `O=C(COC(=O)c1ccccc1C(=O)N1CCN(c2ccccc2)CC1)NCc1ccccc1`, the “hERG current change (%, negative = inhibition) at 1uM” value falls from 3.59% to -3.52%.

Going from `Cc1onc(-c2ccccc2Cl)c1C(=O)N1CCc2ccccc2C1` to `CN(C)C(CNC(=O)c1ccc(Cl)c(S(=O)(=O)N2CCCCCC2)c1)c1ccccc1` (centres unmarked), the “hERG current change (%, negative = inhibition) at 1uM” value falls from 6.07% to -27.8%.

First: O=C(COCC(=O)Nc1cccc(C(F)(F)F)c1)Nc1cccc(C(F)(F)F)c1
Second: O=C(COC(=O)c1ccccc1)Nc1ccc(Cl)cn1
The “hERG current change (%, negative = inhibition) at 1uM” value of the first is higher: 24.2% for the first, 12.3% for the second.

First: Cc1ccc(C(=O)Nc2nnc(-c3ccncc3)s2)o1
Second: COc1ccc(C)cc1-n1c(-c2ccncc2)n[nH]c1=S
The “hERG current change (%, negative = inhibition) at 1uM” value of the first is higher: 9.36% for the first, 7.3% for the second.

Compared with `O=C(NNC(=O)c1ccccc1O)c1ccc(S(=O)(=O)Nc2ccccc2)cc1`, `Cc1cc(F)ccc1S(=O)(=O)Nc1ccccc1C(=O)NCc1ccccn1` is higher in “hERG current change (%, negative = inhibition) at 1uM” value: 8.89% for the first, 9.77% for the second.

First: N#Cc1c(NC(=O)CN2CCN(S(=O)(=O)c3ccc4c(c3)OCCO4)CC2)sc2c1CCC2
Second: Cc1ccc(NC(=O)[C@@H]2CCCN2S(=O)(=O)c2ccccc2C(F)(F)F)cc1S(=O)(=O)N1CCOCC1
The “hERG current change (%, negative = inhibition) at 1uM” value of the first is higher: 7.35% for the first, 0.123% for the second.

Compared with `COc1ccc(NC(=S)Nc2cccc3cnccc23)cc1`, `CCCC(=O)Nc1nc2ccc(NC(=O)c3cccnc3)cc2s1` is higher in “hERG current change (%, negative = inhibition) at 1uM” value: -1.61% for the first, 0.651% for the second.

Compared with `CCOC(=O)CSc1nc(C)c2cccc(C)c2n1`, `Cc1ccc2nc(SCC(=O)NCc3cccs3)[nH]c2c1` is lower in “hERG current change (%, negative = inhibition) at 1uM” value: 10.9% for the first, 2.2% for the second.

First: O=C(C1CCCO1)N1CCN(C(=S)Nc2cccc(Cl)c2)CC1 (centres unmarked)
Second: Cc1cccc(NC(=O)CN(CC2CCCO2)C(=O)c2oc3ccccc3c2C)c1C (centres unmarked)
The “hERG current change (%, negative = inhibition) at 1uM” value of the first is lower: 2.65% for the first, 17% for the second.

Compared with `CCc1ccc(C(=O)N/N=C/c2ccc(Cl)cc2Cl)nc1`, `O=C(CSCc1ccc(Cl)cc1Cl)Nc1ccc(O)cc1C(=O)O` is higher in “hERG current change (%, negative = inhibition) at 1uM” value: 5.58% for the first, 14.7% for the second.

First: CCS(=O)(=O)C1=NSC2=NC(=O)/C(=C\c3ccc(OC(=O)c4ccco4)cc3)C(=N)N21
Second: Cc1ccc(OC(C)C(=O)N2CC(=O)Nc3ccccc32)cc1 (centres unmarked)
The “hERG current change (%, negative = inhibition) at 1uM” value of the first is higher: 15.8% for the first, -41.6% for the second.

First: Clc1ccc(Cn2ncc3c(N4CCCCC4)ncnc32)cc1
Second: COCCn1c(SCCN2CCCCC2)nc2ccccc2c1=O
The “hERG current change (%, negative = inhibition) at 1uM” value of the first is higher: -4.22% for the first, -53.3% for the second.

Compared with `CCOC(=O)c1cc2c(OC)ccc(OC)c2n1CC(=O)c1ccccc1`, `COc1ccc(OC)c(S(=O)(=O)N2CCc3ccccc32)c1` is higher in “hERG current change (%, negative = inhibition) at 1uM” value: 6.46% for the first, 10.7% for the second.

First: O=C(CSc1nnnn1C1CCCCC1)NCc1ccccc1
Second: Cc1nc(SCC(=O)NC2CCCC2)c2c(C)c(C)sc2n1
The “hERG current change (%, negative = inhibition) at 1uM” value of the first is higher: 11.7% for the first, 11.1% for the second.

Compared with `Cc1csc(=O)n1CC(=O)OCC(=O)NC(C)c1ccc(F)cc1` (centres unmarked), `O=C1CN(C(=O)COC(=O)CNC(=O)c2ccc(Br)o2)c2ccccc2N1` is higher in “hERG current change (%, negative = inhibition) at 1uM” value: 1.63% for the first, 7.83% for the second.

Compared with `Cc1cc(C)cc(NC(=S)NC2CC3CCCC(C2)N3CC(C)C)c1` (centres unmarked), `CCN1C(=C(C#N)C#N)C=Cc2cc(C)ccc21` is higher in “hERG current change (%, negative = inhibition) at 1uM” value: 11.3% for the first, 14.9% for the second.

First: COc1cccc(Nc2c(F)c(OC)c(F)c(F)c2C(=O)O)c1
Second: COc1ccc(CNCC(O)(c2ccc(F)cc2)c2ccc(F)cc2)cc1OC
The “hERG current change (%, negative = inhibition) at 1uM” value of the first is higher: 11.9% for the first, -30.4% for the second.

Going from `Cn1c(=O)c2c(SCC(=O)Nc3ccccc3F)nc(-c3ccccc3F)nc2n(C)c1=O` to `CCOc1ccc(NC(=O)C2CC(=O)OC2c2ccccc2)cc1` (centres unmarked), the “hERG current change (%, negative = inhibition) at 1uM” value falls from 11.5% to 6.84%.

First: Cc1ccc(S(=O)(=O)N(C)Cc2cc3cc(C)ccc3[nH]c2=O)cc1
Second: CN(C[C@H](Cc1ccccc1)N(C[C@H](c1ccccc1)N(CCc1ccccc1)N=O)N=O)N=O.[Na+]
The “hERG current change (%, negative = inhibition) at 1uM” value of the first is higher: 13.1% for the first, 6.14% for the second.

— article PMC4336329 (PLoS ONE, 2015)
